Results published in a collection of fitness landscapes (doi:10.1126/science.1257360).
The other results are listed elsewhere or left out.

B1: PhoQ; a variant is named by its letters at X, in order, P23837 (parent)
chain: MKKLLRLFFPLSLRVRFLLATAAVVLVLSLAYGMVALIGYSVSFDKTTFRLLRGESNLFYTLAKWENNKLHVELPENIDKQSPTMTLIYDENGQLLWAQRDVPWLMKMIQPDWLKSNGFHEIEADVNDTSLLLSGDHSIQQQLQEVREDDDDAEMTHSVAVNVYPATSRMPKLTIVVVDTIPVELKSSYMVWSWFIYVLSANLLLVIPLLWVAAWWSLRPIEALAKEVRELEEHNRELLNPATTRELTSLVRNLNRLLKSERERYDKYRTTLTDLTHSLKTPLXXLQXXLRSLRSEKMSVSDAEPVMLEQISRISQQIGYYLHRASMRGGTLLSRELHPVAPLLDNLTSALNKVYQRKGVNISLDISPEISFVGEQNDFVEVMGNVLDNACKYCLEFVEISARQTDEHLYIVVEDDGPGIPLSKREVIFDRGQRVDTLRPGQGVGLAVAREITEQYEGKIVAGESMLGGARMEVIFGRQHSAPKDE

Variants of: B1
Test: enrichment ratio after two sorts for PhoP signalling (ratio (wild type AVST 3.29)); higher = more functional
Details: with PhoP (E. coli)

| Variant | enrichment ratio |
| --- | --- |
| AIMA | 12.1 |
| EYKW | ≤ 0.25 |
| MLYP | ≤ 0.25 |
| YLIS | ≤ 0.25 |
| NGSG | ≤ 0.25 |
| EQQY | ≤ 0.25 |
| NCIN | ≤ 0.25 |
| QIMC | ≤ 0.25 |
| DTWN | ≤ 0.25 |
| HTFP | ≤ 0.25 |
| QHSY | 4.24 |
| WRLI | ≤ 0.25 |
| DVVT | ≤ 0.25 |
| LDVS | ≤ 0.25 |
| GIRQ | ≤ 0.25 |
| SDPF | ≤ 0.25 |
| LEEQ | ≤ 0.25 |
| ENQV | ≤ 0.25 |
| SIGQ | 10.4 |
| INID | ≤ 0.25 |
| EYMT | ≤ 0.25 |
| DSNT | ≤ 0.25 |
| HSGS | ≤ 0.25 |
| PPDQ | ≤ 0.25 |
| IIVS | ≤ 0.25 |
| NIWF | ≤ 0.25 |

| Variant | enrichment ratio |
| --- | --- |
| TWAW | ≤ 0.25 |
| RYAS | ≤ 0.25 |
| FYTM | ≤ 0.25 |
| KEQG | ≤ 0.25 |
| RRQG | ≤ 0.25 |
| SVGG | 6.63 |
| PYCF | ≤ 0.25 |
| MFSS | ≤ 0.25 |
| KPKD | ≤ 0.25 |
| KTPT | ≤ 0.25 |
| QTTL | 0.662 |
| EDPL | ≤ 0.25 |
| KTGT | ≤ 0.25 |
| LRDS | ≤ 0.25 |
| WVPM | ≤ 0.25 |
| GKMG | ≤ 0.25 |
| SKQT | ≤ 0.25 |
| KENC | ≤ 0.25 |
| KTIL | ≤ 0.25 |
| PRCE | ≤ 0.25 |
| VTRD | ≤ 0.25 |
| HDAM | ≤ 0.25 |
| WSPW | ≤ 0.25 |
| WNFV | ≤ 0.25 |
| NEWT | 32 |
| EIST | ≤ 0.25 |

| Variant | enrichment ratio |
| --- | --- |
| PFKW | ≤ 0.25 |
| TDQM | ≤ 0.25 |
| YMAV | ≤ 0.25 |
| HHDE | ≤ 0.25 |
| KVSH | ≤ 0.25 |
| MKIW | ≤ 0.25 |
| GTAW | ≤ 0.25 |
| GLLI | 9.34 |
| GFFN | ≤ 0.25 |
| DVHK | ≤ 0.25 |
| YFKH | ≤ 0.25 |
| KTTN | ≤ 0.25 |
| VCTL | 6.03 |
| NGKS | ≤ 0.25 |
| MACR | ≤ 0.25 |
| SRDY | ≤ 0.25 |
| NGAT | ≤ 0.25 |
| SYEY | ≤ 0.25 |
| KHWS | ≤ 0.25 |
| LHGC | ≤ 0.25 |
| LYPY | ≤ 0.25 |
| FATD | ≤ 0.25 |
| HFHE | ≤ 0.25 |
| YMMK | ≤ 0.25 |
| DMFK | ≤ 0.25 |
| YEYV | ≤ 0.25 |

| Variant | enrichment ratio |
| --- | --- |
| DAEH | ≤ 0.25 |
| IETQ | ≤ 0.25 |
| TVHS | ≤ 0.25 |
| NFMH | ≤ 0.25 |
| YTMV | 12.2 |
| HDPP | ≤ 0.25 |
| IVGL | ≤ 0.25 |
| YQNW | ≤ 0.25 |
| WYAG | ≤ 0.25 |
| GWAS | ≤ 0.25 |
| SIAK | 11.2 |
| LLTD | ≤ 0.25 |
| HAPI | ≤ 0.25 |
| SDDI | ≤ 0.25 |
| HPDR | ≤ 0.25 |
| AYRP | ≤ 0.25 |
| FKSG | ≤ 0.25 |
| DATK | ≤ 0.25 |
| KNEH | ≤ 0.25 |
| RTVL | ≤ 0.25 |
| MSEP | ≤ 0.25 |
| YQSA | ≤ 0.25 |
| FMLK | ≤ 0.25 |
| WYSH | ≤ 0.25 |
| PGLV | ≤ 0.25 |
| QTHL | 4.03 |

| Variant | enrichment ratio |
| --- | --- |
| QPCI | ≤ 0.25 |
| KSIF | ≤ 0.25 |
| FVVT | ≤ 0.25 |
| VCCR | ≤ 0.25 |
| GMRE | ≤ 0.25 |
| KGEH | ≤ 0.25 |
| LMER | ≤ 0.25 |
| TVQD | ≤ 0.25 |
| GYGK | ≤ 0.25 |
| KEEV | ≤ 0.25 |
| DINK | ≤ 0.25 |
| KGLL | ≤ 0.25 |
| NYHQ | ≤ 0.25 |
| THGN | ≤ 0.25 |
| PCVQ | ≤ 0.25 |
| HMQK | ≤ 0.25 |
| DRNT | ≤ 0.25 |
| MTNK | ≤ 0.25 |
| QLWF | ≤ 0.25 |
| TENN | 4.89 |
| STSI | 8.26 |
| FKMI | ≤ 0.25 |
| TFFN | ≤ 0.25 |
| VFYP | ≤ 0.25 |
| YAVD | ≤ 0.25 |
| IDGQ | ≤ 0.25 |

| Variant | enrichment ratio |
| --- | --- |
| KPIY | ≤ 0.25 |
| QESI | 7.8 |
| WSIM | ≤ 0.25 |
| QVRK | ≤ 0.25 |
| QDTQ | ≤ 0.25 |
| AKHE | ≤ 0.25 |
| GQCR | ≤ 0.25 |
| TTES | 3.51 |
| KYNI | ≤ 0.25 |
| CGCT | ≤ 0.25 |
| ENNC | ≤ 0.25 |
| KTLV | ≤ 0.25 |
| AHDL | ≤ 0.25 |
| QPSD | ≤ 0.25 |
| LRQI | ≤ 0.25 |
| FSNN | ≤ 0.25 |
| AHDR | ≤ 0.25 |
| QIIT | ≤ 0.25 |
| EDLM | ≤ 0.25 |
| KNVM | ≤ 0.25 |
| MLHY | ≤ 0.25 |
| VCLP | ≤ 0.25 |
| DCAF | ≤ 0.25 |
